The text below walks through data of PubChem BioAssay AID360 (National Center for Advancing Translational Sciences (NCATS), 2006).

Out of some 48,000 compounds screened, about 550 (1.1%) were called active. About 4% were inconclusive and are not listed. Rule as the data show it: active = potency below about 15 µM; inconclusive = mostly about 16 µM to 33 µM; inactive = weaker than that. The list shows a part of the results.
Potency is read from the fitted curve at half-maximal effect.

This assay deals with Lysosomal acid glucosylceramidase (Homo sapiens) (UniProt P04062). Nature of the assay: Glucocerebrosidase.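 Also: the screen sought inhibitors.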 The settings on record: purified enzyme, resorufin glucoside fluorescence (screen aimed at inhibitors), 20 min; series mostly up to 77 µM. The essentials: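 Normal human glucocerebrosidase (0.2 nM final) was assayed with resorufin β-D-glucopyranoside (30 uM final) in 50mM citric acid/KH2PO4, 10mM sodium taurocholate, 0.01% tween-20, pH 5.9. Compounds were titrated; fluorescence (Ex 548, Em 600) read after 20 min at RT.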
UniProt P04062, sequence (P04062 whole entry, looked up): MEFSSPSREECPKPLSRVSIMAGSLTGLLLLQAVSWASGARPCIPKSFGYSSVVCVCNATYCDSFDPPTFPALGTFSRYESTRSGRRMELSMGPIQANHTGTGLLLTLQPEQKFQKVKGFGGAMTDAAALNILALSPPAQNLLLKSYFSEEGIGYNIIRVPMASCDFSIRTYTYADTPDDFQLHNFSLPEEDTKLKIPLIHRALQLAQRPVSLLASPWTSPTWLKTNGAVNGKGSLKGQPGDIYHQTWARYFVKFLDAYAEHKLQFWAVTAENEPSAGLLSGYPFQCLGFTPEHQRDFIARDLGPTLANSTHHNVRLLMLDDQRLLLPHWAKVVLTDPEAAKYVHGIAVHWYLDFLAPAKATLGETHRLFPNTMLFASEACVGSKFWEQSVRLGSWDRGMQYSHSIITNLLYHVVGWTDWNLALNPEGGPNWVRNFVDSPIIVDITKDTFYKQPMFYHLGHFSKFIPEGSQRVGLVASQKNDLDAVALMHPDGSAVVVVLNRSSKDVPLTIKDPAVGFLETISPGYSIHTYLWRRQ
As to `CN(c1cccc(NC(=O)Nc2cccc(Cl)c2)c1)S(C)(=O)=O`, the Potency is inactive: > 76.9 µM. Take `Cc1c(NC(=O)c2c(F)cccc2F)c(=O)n(-c2ccccc2)n1C`: the Potency was inactive: > 76.9 µM. As for `COc1ccc(Cl)cc1N(C)C(=O)CCc1nc(-c2ccc(C)cc2)no1`, the figure is inactive: > 76.9 µM; as for `CCOC(=O)N1CCN(C(=O)c2cc(Cl)c(Cl)cc2C(=O)O)CC1`, inactive: > 76.9 µM; as for `COc1ccc(CN(C(=O)CSc2nnc(-c3ccccc3F)o2)c2ccc(F)cc2)cc1`, inactive: > 76.9 µM. With `CCc1ccc(NC(=O)CCN2C(=O)c3cccnc3C2=O)cc1`, the Potency was inactive: > 76.9 µM.

`O=C1CCCc2nc(N3CCN(c4ccccc4)CC3)ncc21`: the Potency is inactive: > 76.9 µM. The figure for `Cc1cc(=O)[nH]c(SCc2cc(Cl)ccc2OC(F)F)n1` is inactive: > 76.9 µM; for `O=C(O)c1cc(NC(=O)C2CCCO2)cc(NC(=O)C2CCCO2)c1` (stereo not drawn) it is inactive: > 76.9 µM. As to `Cc1cc2nc(-c3ccc(NC(=O)c4cccnc4)cc3)oc2cc1C`, the Potency is inactive: > 76.9 µM. The figure for `CCOC(=O)N1CCC(NC(=O)CCS(=O)(=O)c2ccc3c(c2)CCN3C(=O)CC)CC1` is inactive: > 76.9 µM; for `O=C(NCC1CCCO1)c1ccc(NC(=O)C2CCCCC2C(=O)O)cc1` (stereo not drawn) it is inactive: > 76.9 µM; for `COc1ccccc1OC(=O)C1CC(=O)N(c2ccc(Cl)cc2)C1` (stereo not drawn) it is inactive: > 76.9 µM. In the case of `CCOC(=O)C1=C(C)NC(SCC(=O)O)=NC1c1ccccc1` (stereo not drawn), the Potency was inactive: > 76.9 µM. As for `O=C(NCc1ccncc1)c1cccc(Cn2cc(Br)cn2)c1`, the figure is inactive: > 76.9 µM. As for `O=C(CCn1c(=O)sc2ccccc21)NCc1ccco1`, the figure is inactive: > 76.9 µM; as for `CCN(CC)CCCN1C(=O)C(O)=C(C(=O)c2ccc(C)o2)C1c1ccco1` (stereo not drawn), inactive: > 76.9 µM.

With `Cc1ccc(NC(=O)Cn2nnc(C(=O)NCc3cccs3)c2N)cc1`, the Potency was inactive: > 76.9 µM. The figure for `Cc1ccc(OCCC(=O)Nc2c(C)n(C)n(-c3ccccc3)c2=O)cc1` is inactive: > 76.9 µM; for `O=S(=O)(NCc1cccnc1)c1cc(Cl)ccc1Cl` it is inactive: > 76.9 µM. As for `CCn1c(COc2ccccc2)nnc1SCC(=O)NC1CCCCC1`, the figure is inactive: > 76.9 µM; as for `COC(=O)Cn1nnc(-c2cccc(OC)c2)n1`, inactive: > 76.9 µM. Regarding `COc1ccc(C(=O)COC(=O)CSCc2c(C)noc2C)cc1OC`, the Potency was inactive: > 76.9 µM. For `O=C(c1cccc(S(=O)(=O)N2CCCC2)c1)N1CCN(c2ccccc2F)CC1`, the Potency is inactive: > 76.9 µM. The figure for `Cc1[nH]c2ccc(-c3nnc(SCC(=O)c4ccccc4F)o3)cc2c1C` is inactive: > 76.9 µM.

Regarding `CN(C)Cc1cc(CCNC(=O)c2ccc(Cl)cc2)ccc1O`, the Potency result was “inactive”. The entry for `CCc1nnc(NC(=O)CSc2nc3cccnc3n2C2CCCCC2)s1` is “inactive”; for `Cc1cc(C(=O)CSc2nnc(-c3ccccc3)n2-c2ccccc2)c(C)n1-c1ncn[nH]1` it is inactive: > 76.9 µM; for `O=C(c1sccc1-n1cccc1)N1CCCC1` it is inactive: > 76.9 µM. For `CC(C)C(OC(=O)c1cc2sccc2n1C)C(=O)NCC1CCCO1` (stereo not drawn), the Potency was inactive: > 76.9 µM. Consider `COc1cccc(NC(=O)N2CCN(C(=O)C(Cc3ccc(OC)c(OC)c3)NC(C)=O)CC2)c1` (stereo not drawn), for which the Potency is inactive: > 76.9 µM. The figure for `COc1ccc(-c2nnc(NC(=O)c3ccc(S(=O)(=O)N4CCCc5ccccc54)cc3)o2)cc1` is inactive: > 76.9 µM. In the case of `CCOc1ccccc1CN1CCN(S(C)(=O)=O)CC1`, the Potency was inactive: > 76.9 µM.

As for `CCCN(CCC)C(=O)Cn1c(=O)n(CCCCC(=O)NCc2ccco2)c(=O)c2ccccc21`, the Potency is inactive: > 76.9 µM. As for `Cc1ccc(-n2nc3c(c2NC(=O)c2ccc4c(c2)OCO4)CSC3)cc1`, the figure is inactive: > 76.9 µM; as for `Cc1noc(C)c1COC(=O)c1cccnc1SCC(=O)Nc1ccc2c(c1)OCO2`, inactive: > 76.9 µM. Regarding `CC(=O)N(c1ccccc1)c1c(F)c(F)c(F)c(F)c1F`, the Potency was inactive: > 76.9 µM. The figure for `NC(=O)CSc1nnc(CNc2cccc(Cl)c2)n1CCc1ccccc1` is inactive: > 76.9 µM; for `Cc1cc(C(=O)CSc2nc3ccccc3c(=O)n2C)c(C)n1Cc1ccc2c(c1)OCO2` it is inactive: > 76.9 µM. Consider `Cc1ccc2c(c1)nnn2C1CCN(CC(=O)NCCc2ccccc2)CC1`, for which the Potency is inactive: > 76.9 µM. The figure for `COC(=O)c1ccc(NC(=O)CN2C(=O)CCC2=O)cc1` is inactive: > 76.9 µM; for `Cc1ccc(S(=O)(=O)NCc2cn3ccsc3n2)c(C)c1` it is inactive: > 76.9 µM; for `Cc1ccsc1C(=O)N1CC(=O)Nc2ccccc21` it is inactive: > 76.9 µM.

For the compound `Cc1cc(C)n(-c2nc(NCC3CCCO3)c3c4c(sc3n2)COC(C)(C)C4)n1` (stereo not drawn), the Potency is inactive: > 76.9 µM. With `O=C(NCc1ccc2c(c1)OCO2)c1ccc(CS(=O)(=O)c2cccc(C(F)(F)F)c2)o1`, the Potency is inactive: > 76.9 µM.

On to `CCOC(=O)C(NC(C)=O)(Nc1ccc(S(=O)(=O)Nc2nccs2)cc1)C(F)(F)F` (stereo not drawn), for which the Potency was inactive: > 76.9 µM.

Regarding `CCN(CC)CCCNC(=O)c1nn(-c2ccc(OC)cc2OC)c(=O)c2ccccc12`, the Potency was inactive: > 76.9 µM. For the compound `CC(=O)Nc1cccc(C(=O)Oc2cccc(C)c2)c1O`, the Potency is inactive: > 76.9 µM. The figure for `Cc1ccc(CN2C(=O)CCC2C(=O)NCCCN2CCOCC2)cc1` (stereo not drawn) is inactive: > 76.9 µM.

Consider `O=C(O)CCCC(=O)Nc1nc2n(n1)C(c1ccc(F)cc1)CC(c1ccc(Cl)cc1)N2` (stereo not drawn), for which the Potency is inactive: > 76.9 µM. Take `Cc1cc(C)c(NC(=O)Cn2c(=O)n(Cc3ccco3)c(=O)c3ccccc32)c(C)c1`: the Potency is inactive: > 76.9 µM.

Turning to `O=C(CN1C(=O)c2ccccc2C1=O)Nc1ccc(S(=O)(=O)NCC2CCCO2)cc1` (stereo not drawn), the Potency is inactive: > 76.9 µM. The figure for `CCn1c(SCC(=O)N2CCCC2)nc2ccccc2c1=O` is inactive: > 76.9 µM; for `Nc1ncn(C(=O)c2ccco2)n1` it is inactive: > 76.9 µM. The figure for `CCOC(=O)c1c(NC(=O)C2CCN(S(=O)(=O)c3cccs3)CC2)sc(C)c1C` is inactive: > 76.9 µM. As for `O=C(NCCc1ccc(Cl)cc1)C1CCN(S(=O)(=O)c2ccc(-n3cnnn3)cc2)CC1`, the figure is inactive: > 76.9 µM; as for `CC(=O)Nc1cc(C(=O)N2CCCC2)ccc1S(=O)(=O)c1ccc(C)cc1`, inactive: > 76.9 µM; as for `COc1ccccc1NC(=O)CSc1nnc(-c2ccc(C)cc2)o1`, inactive: > 76.9 µM.

With `Cc1nc2cc(NC(=O)Nc3ccc(N4CCOCC4)cc3)ccc2n1C`, the Potency is inactive: > 76.9 µM. As for `CCCCn1nc(C(=O)NC2=NCCS2)c2ccccc2c1=O`, the Potency is inactive: > 76.9 µM. The figure for `O=C(NCc1ccccn1)C(C(=O)c1ccc(F)cc1)n1ccccc1=O` (stereo not drawn) is inactive: > 76.9 µM; for `O=C(c1ccccn1)N1CCN(c2ccc(C(F)(F)F)cn2)CC1` it is inactive: > 76.9 µM.

For `COc1cc(C)nc(N(Cc2ccccc2)S(=O)(=O)c2ccccc2)n1`, the Potency was inactive: > 76.9 µM.

For `O=C(CN1C(=O)C2(OCCO2)c2ccccc21)c1ccc(Br)cc1`, the Potency was inactive: > 76.9 µM. Consider `CCOC(=O)C1CCN(C(=O)Cc2cccs2)CC1`, for which the Potency is inactive: > 76.9 µM. The figure for `Cc1nc(N2CCN(c3ccccc3)CC2)nc2c1C(=O)CC(c1ccccc1)C2` (stereo not drawn) is inactive: > 76.9 µM. As for `CCOc1cc(/C=C(/C#N)c2ccc(F)cc2)ccc1OCc1ccc(C(=O)O)o1`, the figure is inactive: > 76.9 µM; as for `CCC1CCCCN1C(=O)Nc1cccc(NC(=O)N2CCCCC2CC)c1` (stereo not drawn), inactive: > 76.9 µM. Turning to `Cc1nc(N2CCC(C(N)=O)CC2)c2nnn(Cc3ccccc3)c2n1`, the Potency was inactive: > 76.9 µM. The figure for `CCOC(=O)C1=C(C)NC(SCC(N)=O)=C(C#N)C1c1ccncc1` (stereo not drawn) is inactive: > 76.9 µM. Turning to `O=C(CC1C(=O)OCN1C(=O)OCc1ccccc1)OCC(=O)c1ccccc1` (stereo not drawn), the Potency was inactive: > 76.9 µM. As to `O=C(Oc1cccnc1)c1cc2ccccc2oc1=O`, the Potency is inactive: > 76.9 µM. On to `COC(=O)C(Cc1ccc(O)cc1)NC(=O)CCC(=O)Nc1ccc(S(N)(=O)=O)cc1` (stereo not drawn), for which the Potency is inactive: > 76.9 µM. As for `COc1ccc(S(=O)(=O)N2CCC(C(=O)Nc3ccccc3C)CC2)c2cccnc12`, the figure is inactive: > 76.9 µM. The entry for `Cc1oc2c(CN3CCCC3)c(O)ccc2c(=O)c1-c1ccc(Br)cc1` is “inactive”; for `CCN(c1ccccc1)S(=O)(=O)c1ccc2[nH]cc(C(=O)NCCOC)c(=O)c2c1` it is inactive: > 76.9 µM; for `Cc1ccsc1C(C(=O)NC1CCCCC1)N(C(=O)c1csnn1)C1CC1` (stereo not drawn) it is inactive: > 76.9 µM. Consider `Cc1nccn1CC(O)COC1CCCCC1` (stereo not drawn), for which the Potency is inactive: > 76.9 µM.

For the compound `Cc1ccc(CC(=O)Nc2cccc(C)n2)cc1`, the Potency was inactive: > 76.9 µM. The figure for `O=c1c(C/C=C/c2ccccc2)c(O)nc2n1CCCS2` is inactive: > 76.9 µM; for `CCOC(=O)C1=C(N)Oc2c(oc(CO)cc2=O)C1c1c(F)cccc1Cl` (stereo not drawn) it is inactive: > 76.9 µM. On to `O=C(CCCNS(=O)(=O)c1ccc(Br)cc1)N1CC[C@@]2(O)CCCC[C@H]2C1`, for which the Potency is inactive: > 76.9 µM. Turning to `CCOC(=O)c1[nH]c2ccccc2c1NC(=O)c1ccco1`, the Potency was inactive: > 76.9 µM. As to `CC(=O)N1CCc2cc(S(=O)(=O)NCCC(=O)N3CCc4ccccc4C3)ccc21`, the Potency is inactive: > 76.9 µM. Regarding `CCOC(=O)CNC(=O)Cn1c(C)cc2ccccc2c1=O`, the Potency is inactive: > 76.9 µM. As for `O=C1NCC(COCc2ccco2)O1` (stereo not drawn), the figure is inactive: > 76.9 µM; as for `CCCS(=O)(=O)N1CCC(C(=O)NCc2ccccc2Cl)CC1`, inactive: > 76.9 µM; as for `Clc1ccccc1-c1nnc2sc(-c3ccc4c(c3)OCO4)nn12`, inactive: > 76.9 µM.
